Laboratory results taken from the supplement of paper PMC6135742.
Counter-ions that a name gives are not always drawn. ± gives the standard deviation of the averaged measurements. The full ranking holds about 2,600 compounds; the median of “total cell number (DAPI+ nuclei) relative to DMSO vehicle control” is about -1.4, and the lowest 2% start at about -23. The list shows a part of the results.

The compounds below were run on jimpy (Plp1 jimpy) mouse iPSC-derived oligodendrocyte progenitor cells (assay: total cell number (DAPI+ nuclei) relative to DMSO vehicle control (SDs above negative control mean); higher = more surviving cells). Settings: 10 µM; 3 days.
CC(C)S(=O)(=O)N[C@H]1CCOC[C@@H]1c1ccc(-c2ccc(C#N)s2)cc1 gave a total cell number of -8.53. Work on Cl.N[C@@H](CCC(=O)O)C(=O)O [L-Glutamic acid hydrochloride] yielded a total cell number of -2.38. Clc1ccc2c(c1)CCc1cccnc1C2=C1CCNCC1 [Desloratadine] was tested, and the total cell number was -5.13. O=C1NCC2(CCN(CCc3ccccc3)CC2)O1 [Fenspiride HCl] showed a total cell number of 9.07. In the case of O=C1NCC2(CCN(CCc3ccccc3)CC2)O1 [Fenspiride hydrochloride], the total cell number is reported as 2.58. Work on O=C(O)CCc1ccc(NCc2cccc(Oc3ccccc3)c2)cc1 yielded a total cell number of -0.425 ± 2. Compound O=C1NC(=O)c2cc(Nc3ccccc3)c(Nc3ccccc3)cc21 has a total cell number of -7.71. In the case of CCCOc1ccc2[nH]c(NC(=O)OC)nc2c1 [Oxibendazole], the total cell number is reported as -3.62. O=C(CCCCCN1CCN(c2ccccc2-c2ccccc2)CC1)NC1CCCc2ccccc21 (stereo not given) [LP 12 hydrochloride hydrate] gave a total cell number of -3.26. O=C(c1ccc(F)cc1)C1CCN(CCn2c(=O)[nH]c3ccccc3c2=O)CC1 [Ketanserin tartrate] was tested, and the total cell number was -2.42. O=C(c1ccc(F)cc1)C1CCN(CCn2c(=O)[nH]c3ccccc3c2=O)CC1 [Ketanserin] was tested, and the total cell number was -0.515. With NC(=O)Nc1cc(-c2cccc(F)c2)sc1C(=O)N[C@H]1CCCNC1 the total cell number was -17.4. With C[C@H]1[C@H](C)CC[C@]2(C(=O)O)CC[C@]3(C)C(=CC[C@@H]4[C@@]5(C)CC[C@H](O)C(C)(C)[C@@H]5CC[C@]43C)[C@H]12 [Ursolic Acid] the total cell number was -9.81. In the case of NC1(C(=O)O)CC1 [1-Aminocyclopropanecarboxylic acid hydrochloride], the total cell number is reported as -5.54. Compound CCN(CC)C(=O)c1ccc(O)c(OC)c1 [Vanillic acid diethylamide] has a total cell number of -5.92. Nc1nccc(Oc2ccc(NC(=O)c3c[nH]cc(-c4ccc(F)cc4)c3=O)cc2F)c1Cl showed a total cell number of 3.73. In the case of COc1ccc2c(Oc3ccc(NC(=O)c4c(C)n(CC(C)(C)O)n(-c5ccccc5)c4=O)nc3)ccnc2c1, the total cell number is reported as -3.37. In the case of COc1c(C)cnc(Cn2cnc3c(Cl)nc(N)nc32)c1C, the total cell number is reported as -26.3. For CC(C)CCNC(=O)[C@H](CC(C)C)NC(=O)[C@H]1O[C@@H]1C(=O)O [Loxistatin Acid (E-64C)], the total cell number was -1.41. Compound NCCCCCC(=O)O has a total cell number of -0.295. In the case of c1ccc2c(CCNc3ccc(Nc4ccncc4)cc3)c[nH]c2c1, the total cell number is reported as -18.9. Compound Cc1nc2c([nH]1)-c1ccccc1N(C(=O)c1ccc(NC(=O)c3ccccc3-c3ccccc3)cc1)CC2 [Conivaptan HCl] has a total cell number of -1.77. Work on CNCCc1ccccn1 [Betahistine 2HCl] yielded a total cell number of -0.73. COc1ccc(C2(O)OC(=O)C(c3ccc4c(c3)OCO4)=C2Cc2cc(OC)c(OC)c(OC)c2)cc1 (stereo not given) showed a total cell number of -1.66. With CCCCCCCCCCCCCCCC(=O)OC[C@H](O)[C@H]1OC(=O)C(O)=C1O [L-Ascorbyl 6-palmitate] the total cell number was -0.778. In the case of Nc1nc2c(ncn2COC(CO)CO)c(=O)[nH]1 [Ganciclovir], the total cell number is reported as -1.05 ± 0.75. Work on Cc1csc(-c2nnc(Nc3ccc(Oc4ncccc4-c4ccnc(N)n4)cc3)c3ccccc23)c1 yielded a total cell number of -3.57. N=C(N)NCCCCNC(=N)N [Arcaine sulfate] showed a total cell number of -1.25. CN1CCN(C2Cc3ccccc3Sc3ccc(Cl)cc32)CC1 (racemic) [(±)-Octoclothepin maleate] gave a total cell number of -3.08. With Clc1cccc(Cl)c1NC1=NCCN1 [Clonidine HCl] the total cell number was 0.804. Clc1cccc(Cl)c1NC1=NCCN1 [Clonidine hydrochloride] gave a total cell number of -0.554. C[C@]12C=CC(=O)N[C@@H]1CC[C@@H]1[C@@H]2CC[C@]2(C)[C@@H](C(=O)Nc3cc(C(F)(F)F)ccc3C(F)(F)F)CC[C@@H]12 [Dutasteride] gave a total cell number of -1.53. In the case of CO[C@H]1/C=C/O[C@@]2(C)Oc3c(C)c(O)c4c(O)c(c5c(nc6cc(C)ccn65)c4c3C2=O)NC(=O)/C(C)=C\C=C\[C@H](C)[C@H](O)[C@@H](C)[C@@H](O)[C@@H](C)[C@H](OC(C)=O)[C@@H]1C [Rifaximin], the total cell number is reported as -2.3. Cc1cnc(Nc2ccc(OCCN3CCCC3)cc2)nc1Nc1cccc(S(=O)(=O)NC(C)(C)C)c1 showed a total cell number of -12.3. For Cn1ncnc1[C@H]1c2n[nH]c(=O)c3cc(F)cc(c23)N[C@@H]1c1ccc(F)cc1, the total cell number was -8.84. COc1cc(-c2ncn(/C=C\C(=O)OC(C)C)n2)cc(C(F)(F)F)c1 was tested, and the total cell number was -14.9. For COc1ccc(-c2nc(N3CCOCC3)c3sc(CN(C)c4ncc(C(=O)NO)cn4)cc3n2)cn1, the total cell number was -10.4. In the case of O=C(Cc1ccccc1)Nc1nnc(CCSCCc2nnc(NC(=O)Cc3ccccc3)s2)s1, the total cell number is reported as -1.45. For CCCNC(=O)NS(=O)(=O)c1ccc(Cl)cc1 [Chlorpropamide], the total cell number was 0.22 ± 1.9. CCN(CC)C(C)CN1c2ccccc2Sc2ccccc21 (stereo not given) [Ethopropazine hydrochloride] gave a total cell number of -5.56. With NS(=O)(=O)Cc1noc2ccccc12 [Zonisamide] the total cell number was -5.35. With C=CCc1ccc(O)c(-c2cc(CC=C)ccc2O)c1 [Magnolol] the total cell number was -0.222. In the case of COc1ccc2c(c1)C(=O)N(CCc1ccc(S(=O)(=O)NC(=O)NC3CCCCC3)cc1)C(=O)C2(C)C [Gliquidone], the total cell number is reported as -1.71. For COc1ccc([C@@H]2Sc3ccccc3N(CCN(C)C)C(=O)[C@@H]2OC(C)=O)cc1 [Diltiazem HCl], the total cell number was -3.33. COc1ccc([C@@H]2Sc3ccccc3N(CCN(C)C)C(=O)[C@@H]2OC(C)=O)cc1 [Diltiazem hydrochloride] gave a total cell number of -1.43. For Cc1cn([C@H]2C[C@H](N=[N+]=[N-])[C@@H](CO)O2)c(=O)[nH]c1=O [Zidovudine], the total cell number was -3.62. In the case of Cc1cn([C@H]2C[C@H](N=[N+]=[N-])[C@@H](CO)O2)c(=O)[nH]c1=O [3'-Azido-3'-deoxythymidine], the total cell number is reported as -2.72. For CC(=O)c1cc([N+](=O)[O-])c(Sc2ccc(F)cc2F)s1, the total cell number was -5.94. In the case of C[C@H](NC[C@H](O)CP(=O)(O)Cc1ccccc1)c1ccc(Cl)c(Cl)c1, the total cell number is reported as -0.806. Work on N[C@@H](Cc1c[nH]cn1)C(=O)O [L-Histidine hydrochloride] yielded a total cell number of -0.443. With Cc1c(NC(=O)OC[C@@H]2COCCN2)cn2ncnc(Nc3ccc4c(cnn4Cc4cccc(F)c4)c3)c12 the total cell number was -16.1. Cc1ccc2nc(NCCN)c3ncc(C)n3c2c1 showed a total cell number of -13.2. Work on COc1ccc(C[C@H](NC(=O)[C@H](C)NC(=O)CN2CCOCC2)C(=O)N[C@@H](Cc2ccccc2)C(=O)[C@@]2(C)CO2)cc1 yielded a total cell number of -12.1. Work on CC(C[N+](C)(C)C)OC(N)=O (stereo not given) [Bethanechol chloride] yielded a total cell number of -0.253 ± 2.4. COc1ccc(CCc2nc3cc(-c4c(C)noc4C)ccc3n2C[C@H](C)N2CCOCC2)cc1Cl gave a total cell number of -8.03. In the case of O=C(O)c1cc2cccc([N+](=O)[O-])c2[nH]1, the total cell number is reported as 0.272. Compound CC(=O)C1=C(O)C=C2Oc3c(C(C)=O)c(O)c(C)c(O)c3C2(C)C1=O (single isomer, unassigned; (+)) [(+)-Usniacin] has a total cell number of 0.54. CCNC(=O)c1noc(-c2cc(C(C)C)c(O)cc2O)c1-c1ccc(CN2CCOCC2)cc1 gave a total cell number of -26.3. For CCCNC(C)C(=O)Nc1c(C)csc1C(=O)OC (stereo not given) [Articaine HCl], the total cell number was -1.22. CNCc1ccc(-c2[nH]c3cc(F)cc4c3c2CCNC4=O)cc1 was tested, and the total cell number was -5.41. For Cc1cnc(-c2cnc(NCCNc3ccc(C#N)cn3)nc2-c2ccc(Cl)cc2Cl)[nH]1, the total cell number was -7.12. In the case of CC1(C)CC(=O)c2c(C(F)(F)F)nn(-c3ccc(C(N)=O)c(N[C@H]4CC[C@H](OC(=O)CN)CC4)c3)c2C1, the total cell number is reported as -12.4. Work on CC1(C)[C@@H](O)CC[C@]2(C)[C@H]3C(=O)C=C4[C@@H]5C[C@@](C)(C(=O)O)CC[C@]5(C)CC[C@@]4(C)[C@]3(C)CC[C@@H]12 [Enoxolone] yielded a total cell number of 1.6. With COc1ccc2c(c1)c(CC(=O)O)c(C)n2Cc1ccc(Cl)cc1 [1-(4-Chlorobenzyl)-5-methoxy-2-methylindole-3-acetic acid] the total cell number was -1.66. Compound COC(=O)[C@@H](N)Cc1ccc(O)c(O)c1 [L-3,4-Dihydroxyphenylalanine methyl ester hydrochloride] has a total cell number of 0.202. Compound C[C@H]1COC2(CCN(c3nc(=O)c4cc(C(F)(F)F)cc([N+](=O)[O-])c4s3)CC2)O1 (racemic) [BTZ043 Racemate] has a total cell number of -1.69. For O=C(O)c1ccc(-n2nc(-c3ccccc3O)nc2-c2ccccc2O)cc1 [Deferasirox], the total cell number was -0.688. COCCOC(=O)C1=C(C)NC(C)=C(C(=O)OC(C)C)C1c1cccc([N+](=O)[O-])c1 (stereo not given) [Nimodipine] gave a total cell number of -6.64 ± 12. Compound NCCS [Cysteamine HCl] has a total cell number of -0.832. Compound NCCS [Cysteamine hydrochloride] has a total cell number of -1.26. For CN1C(C(=O)Nc2ccccn2)=C(O)c2ccccc2S1(=O)=O [Piroxicam], the total cell number was -0.356 ± 0.79. COc1c(C)c2c(c(O)c1C/C=C(\C)CCC(=O)OCCN1CCOCC1)C(=O)OC2 [Mycophenolate Mofetil] showed a total cell number of -13.5. Compound CC(N)(Cc1ccc(O)cc1)C(=O)O (racemic) [DL-alpha-Methyl-p-tyrosine] has a total cell number of 0.65. In the case of COC(=O)CCc1ccc(OCC(O)CNC(C)C)cc1 (stereo not given) [Esmolol HCl], the total cell number is reported as 0.808. O=C(NCc1cccc(O)c1)Nc1nc(-c2ccncc2)cs1 showed a total cell number of -7.77. NCC(=O)CCC(=O)O [5-Aminolevulinic acid HCl] showed a total cell number of -0.691. Compound C[C@H](NC(=O)CCc1nc2ccccc2c(=O)[nH]1)c1ccccc1 has a total cell number of 0.634. Compound CN1CCC(CNc2ccc3ncc(-c4cccc(OC(F)(F)F)c4)n3n2)CC1 [SGI-1776 free base] has a total cell number of -14.8. With Cc1ccc(Sc2ccccc2N2CCNCC2)c(C)c1 the total cell number was -16.6. O=C(O)C[C@H](O)C[C@H](O)/C=C/c1c(C2CC2)nc2ccccc2c1-c1ccc(F)cc1 [Pitavastatin Calcium] showed a total cell number of -8.22.
